Measurements from PubChem BioAssay AID504332 (National Center for Advancing Translational Sciences (NCATS), 2011).
The whole screen tested about 350,000 compounds, of which about 31,000 (8.9%) were called active. Inconclusive means that the source gave no clear call. Such entries were picked first, then a sample of the others. Calls come from the whole dose curve; as a rule, active = well fitted inhibition curve with a large enough effect; inconclusive = small, poorly fitted or top-dose-only effect; inactive = no such curve, though single readings can be large or run the other way. A potency beside an inconclusive call is a rough fit, not a confirmed value.

What follows are compounds tested against Histone-lysine N-methyltransferase EHMT2 (Homo sapiens) (UniProt Q96KQ7) (assay: qHTS Assay for Inhibitors of Histone Lysine Methyltransferase G9a). Settings: G9a H3K9 monomethylation, AlphaScreen, 2 h; activity, negative = inhibition: at 59 µM (top of the series) unless noted.
UniProt Q96KQ7, sequence (Q96KQ7 whole entry, looked up): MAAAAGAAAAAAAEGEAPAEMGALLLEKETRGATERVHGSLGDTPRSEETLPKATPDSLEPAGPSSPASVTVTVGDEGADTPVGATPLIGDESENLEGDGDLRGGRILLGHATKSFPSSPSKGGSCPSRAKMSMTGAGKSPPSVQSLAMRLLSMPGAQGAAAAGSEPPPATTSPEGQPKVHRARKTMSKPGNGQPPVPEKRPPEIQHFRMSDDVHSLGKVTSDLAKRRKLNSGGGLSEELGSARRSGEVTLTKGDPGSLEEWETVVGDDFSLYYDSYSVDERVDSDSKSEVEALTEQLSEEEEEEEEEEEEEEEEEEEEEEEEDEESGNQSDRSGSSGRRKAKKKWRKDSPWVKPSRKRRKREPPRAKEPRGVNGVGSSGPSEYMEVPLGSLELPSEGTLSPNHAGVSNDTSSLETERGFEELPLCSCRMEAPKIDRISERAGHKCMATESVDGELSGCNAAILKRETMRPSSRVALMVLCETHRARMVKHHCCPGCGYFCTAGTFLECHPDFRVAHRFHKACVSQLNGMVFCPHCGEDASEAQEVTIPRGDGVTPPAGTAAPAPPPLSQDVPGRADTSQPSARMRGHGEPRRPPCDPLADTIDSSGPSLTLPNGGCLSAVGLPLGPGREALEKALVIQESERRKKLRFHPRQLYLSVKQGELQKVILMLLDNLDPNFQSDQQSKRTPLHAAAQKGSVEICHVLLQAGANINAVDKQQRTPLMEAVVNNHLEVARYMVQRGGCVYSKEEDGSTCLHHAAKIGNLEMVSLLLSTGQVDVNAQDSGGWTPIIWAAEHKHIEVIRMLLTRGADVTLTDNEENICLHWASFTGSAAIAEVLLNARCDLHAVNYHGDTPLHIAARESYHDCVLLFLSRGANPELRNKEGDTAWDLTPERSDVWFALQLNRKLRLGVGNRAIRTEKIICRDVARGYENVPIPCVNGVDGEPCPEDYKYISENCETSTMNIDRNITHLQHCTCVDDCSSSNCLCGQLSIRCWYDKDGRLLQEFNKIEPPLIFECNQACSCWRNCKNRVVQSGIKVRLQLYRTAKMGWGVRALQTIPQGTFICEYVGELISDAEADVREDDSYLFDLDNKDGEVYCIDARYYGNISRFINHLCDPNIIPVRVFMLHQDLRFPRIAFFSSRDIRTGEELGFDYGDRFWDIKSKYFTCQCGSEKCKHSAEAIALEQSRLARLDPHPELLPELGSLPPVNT
Procedure, shortened: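 Methyltransferase reactions run at room temperature for 2 h (20 nM enzyme, 500 nM biotin-H3K9 peptide, 20 uM SAM) after a 15 min compound preincubation; product detected by AlphaScreen beads and anti-H3K9me1 antibody.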
% is set by controls: 0 for no effect and ±100 for the full control effect; potency is the fitted concentration of half-maximal effect; tags give direction and shape of the fitted curve.
Note: nearly all actives have a fitted effect of over 75% in size.

Row | SMILES | Potency | activity, negative = inhibition
1 | N[C@@H](C(=O)O)[C@@H](CC(=O)O)c1ccc(Cl)cc1 | inactive | –
2 | C=CCN=C1S/C(=C/c2cccc([N+](=O)[O-])c2)C(=O)N1CC=C | inconclusive: 50.1 µM [inhibitor, partial curve, poor fit] | –
3 | O=C1CSC(=S)N1/N=C/c1cccc(C(F)(F)F)c1 | inconclusive: 22.4 µM [inhibitor, full curve, poor fit] | –
4 | Cc1ccc(S(=O)(=O)N2[C@@H](c3ccccc3)C(C(=O)O)=CC[C@H]2c2ccc(C(C)C)cc2)cc1 | – | inactive: 15.4% [at 2.33 µM]
5 | Cc1ccccc1NC(=S)NNc1ncc(C(F)(F)F)cc1Cl | inconclusive: 25.1 µM [inhibitor, partial curve, poor fit] | –
6 | Cc1ccc2oc(C(=O)N(Cc3ccncc3)CC3CCCO3)c(C)c2c1 (stereo not drawn) | inconclusive: 89.1 µM [inhibitor, single point] | –
7 | COc1ccc2c(c1)O[C@@H]1c3ccc(OC)cc3OCC21 (stereo partly drawn) | – | inactive: -37.4% [at 2.33 µM]
8 | Cc1cccc(N2CCN(CCCNc3ncnc4onc(-c5ccc(Cl)cc5)c34)CC2C)c1 (stereo not drawn) | inconclusive: 7.94 µM [inhibitor, partial curve, poor fit] | –
9 | C/C(Cn1nc([N+](=O)[O-])cc1C)=N\NC(=O)COc1c(Cl)cc(Cl)cc1Cl | inactive | –
10 | CCCCn1c(N)c(N(CCC(C)C)C(=O)c2ccccc2C)c(=O)[nH]c1=O | inconclusive: 89.1 µM [inhibitor, partial curve, poor fit] | –
11 | C=CCn1c(C)cc(C(=O)COc2ncnc3sccc23)c1C | inconclusive: 89.1 µM [inhibitor, single point] | –
12 | CCOc1ccccc1N(C)C(=O)C1CCN(S(=O)(=O)c2cccc3nonc23)CC1 | inconclusive: 89.1 µM [inhibitor, single point] | –
13 | Cc1ccc2c(c1)[nH]c1c(=O)n(CCCN3CCOCC3)cnc12 | inconclusive: 89.1 µM [inhibitor, single point] | –
14 | Cn1cnnc1SCC(=O)Nc1sc2c(c1C#N)CCCCC2 | active: 12.6 µM | –
15 | Cc1c(Cl)cccc1NC(=O)COCc1cc(-c2ccc3c(c2)OCO3)on1 | inactive | –
16 | O=C(Nc1ccc(S(=O)(=O)N2CCN(Cc3ccccc3)CC2)cc1)c1cnccn1 | inconclusive: 50.1 µM [inhibitor, partial curve, poor fit] | –
17 | Cc1cccc(OC(=O)c2sc(Cl)nc2C)c1 | inactive | –
18 | CC1CCc2nc3ccc(S(=O)(=O)N4CCC(C(=O)NC(C)c5ccccc5)CC4)cc3c(C(=O)O)c2C1 (stereo not drawn) | active: 50.1 µM | –
